Reference: PMC9911399, “Two distinct binding modes provide the RNA-binding protein RbFox with extraordinary sequence specificity”
Positions count from the first letter of the chain named. Some of the results follow.

T1: RBFOX1 RRM RbFoxmut (Fox-RRM*) (Homo sapiens, UniProt Q9NWB1 109-208, R118D;E147R;N151S;E152T)
T1 sequence: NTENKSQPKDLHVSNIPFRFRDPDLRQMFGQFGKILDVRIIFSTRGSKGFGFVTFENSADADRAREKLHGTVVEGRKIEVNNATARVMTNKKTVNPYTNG

B1: AACAGAU (DNA:RNA)
RNA: GGGAGACCGGAAUUCAGAUUGUCCAACAGAUUUAAAUCCCGUCGUAGCCACCA
DNA 1: CAATCTGAATTCCGGTCTCCC
DNA 2: TGGTGGCTACGACGGGATT
B2: ACAUCCU (DNA:RNA)
RNA: B1 RNA with A26C, C27A, A28U, G29C, A30C
DNA 1: CAATCTGAATTCCGGTCTCCC
DNA 2: TGGTGGCTACGACGGGATT
B3: CGUUUUC (DNA:RNA)
RNA: GGGAGACCGGAAUUCAGAUUGUCCCGUUUUCUUAAAUCCCGUCGUAGCCACCA
DNA 1: CAATCTGAATTCCGGTCTCCC
DNA 2: TGGTGGCTACGACGGGATT
B4: AUUUAGA (DNA:RNA)
RNA: B3 RNA with C25A, G26U, U29A, U30G, C31A
DNA 1: CAATCTGAATTCCGGTCTCCC
DNA 2: TGGTGGCTACGACGGGATT
B5: AACGGUC (DNA:RNA)
RNA: B1 RNA with A28G, A30U, U31C
DNA 1: CAATCTGAATTCCGGTCTCCC
DNA 2: TGGTGGCTACGACGGGATT
B6: ACCCUAU (DNA:RNA)
RNA: B1 RNA with A26C, A28C, G29U
DNA 1: CAATCTGAATTCCGGTCTCCC
DNA 2: TGGTGGCTACGACGGGATT
B7: CACAGAC (DNA:RNA)
RNA: B1 RNA with A25C, U31C
DNA 1: CAATCTGAATTCCGGTCTCCC
DNA 2: TGGTGGCTACGACGGGATT
B8: UAGUAUG (DNA:RNA)
RNA: B3 RNA with C25U, G26A, U27G, U29A, C31G
DNA 1: CAATCTGAATTCCGGTCTCCC
DNA 2: TGGTGGCTACGACGGGATT
B9: AAUGGAU (DNA:RNA)
RNA: B1 RNA with C27U, A28G
DNA 1: CAATCTGAATTCCGGTCTCCC
DNA 2: TGGTGGCTACGACGGGATT
B10: UUGUCUG (DNA:RNA)
RNA: B3 RNA with C25U, G26U, U27G, U29C, C31G
DNA 1: CAATCTGAATTCCGGTCTCCC
DNA 2: TGGTGGCTACGACGGGATT
B11: UUAUAUA (DNA:RNA)
RNA: B3 RNA with C25U, G26U, U27A, U29A, C31A
DNA 1: CAATCTGAATTCCGGTCTCCC
DNA 2: TGGTGGCTACGACGGGATT
B12: GCUAUGA (DNA:RNA)
RNA: B3 RNA with C25G, G26C, U28A, U30G, C31A
DNA 1: CAATCTGAATTCCGGTCTCCC
DNA 2: TGGTGGCTACGACGGGATT
B13: GAUCCUA (DNA:RNA)
RNA: B3 RNA with C25G, G26A, U28C, U29C, C31A
DNA 1: CAATCTGAATTCCGGTCTCCC
DNA 2: TGGTGGCTACGACGGGATT
B14: GAUCCUU (DNA:RNA)
RNA: B1 RNA with A25G, C27U, A28C, G29C, A30U
DNA 1: CAATCTGAATTCCGGTCTCCC
DNA 2: TGGTGGCTACGACGGGATT
B15: CCCGAAG (DNA:RNA)
RNA: B1 RNA with A25C, A26C, A28G, G29A, U31G
DNA 1: CAATCTGAATTCCGGTCTCCC
DNA 2: TGGTGGCTACGACGGGATT
B16: UGUUUCC (DNA:RNA)
RNA: B3 RNA with C25U, U30C
DNA 1: CAATCTGAATTCCGGTCTCCC
DNA 2: TGGTGGCTACGACGGGATT
B17: CUGGGGC (DNA:RNA)
RNA: B3 RNA with G26U, U27G, U28G, U29G, U30G
DNA 1: CAATCTGAATTCCGGTCTCCC
DNA 2: TGGTGGCTACGACGGGATT
B18: UCUUACU (DNA:RNA)
RNA: B3 RNA with C25U, G26C, U29A, U30C, C31U
DNA 1: CAATCTGAATTCCGGTCTCCC
DNA 2: TGGTGGCTACGACGGGATT
B19: ACGGUCU (DNA:RNA)
RNA: B1 RNA with A26C, C27G, A28G, G29U, A30C
DNA 1: CAATCTGAATTCCGGTCTCCC
DNA 2: TGGTGGCTACGACGGGATT
B20: AUCGAUG (DNA:RNA)
RNA: B1 RNA with A26U, A28G, G29A, A30U, U31G
DNA 1: CAATCTGAATTCCGGTCTCCC
DNA 2: TGGTGGCTACGACGGGATT

target: T1, RBFOX1 RRM RbFoxmut (Fox-RRM*); assay: EMSA; HiTS-Eq, 1 nM pool, 10 min; buffer printed only for the single-RNA assays: 10 mM Tris pH 7.5, 150 mM NaCl, 3.4 mM EDTA, 0.001% NP-40, 30 C; conditions: tags: His6 N-terminal (pET28a); label: 5' 32P
In short: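 Purified RbFox RRM, wild type or mutant, was incubated for 10 min in 50 µL with 1 nM of a 5′-radiolabelled RNA pool carrying 7 randomized nucleotides, whose flanks were annealed to DNA oligonucleotides, over a series of increasing protein concentrations. Unbound RNA was resolved on 8% native PAGE, cut out, reverse-transcribed, barcoded by PCR and sequenced on an Illumina HiSeq 2500. Relative association constants were derived from changes in read counts for each RNA species versus the control reaction and normalised to the cognate motif.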

| Binder | binding signal |
| --- | --- |
| B1 | 0.0694 KA relative to UGCAUGU |
| B2 | 0.0761 KA relative to UGCAUGU |
| B3 | 0.0458 KA relative to UGCAUGU |
| B4 | 0.12 KA relative to UGCAUGU |
| B5 | 0.107 KA relative to UGCAUGU |
| B6 | 0.0943 KA relative to UGCAUGU |
| B7 | 0.0649 KA relative to UGCAUGU |
| B8 | 0.674 KA relative to UGCAUGU |
| B9 | 0.0811 KA relative to UGCAUGU |
| B10 | 0.218 KA relative to UGCAUGU |
| B11 | 0.145 KA relative to UGCAUGU |
| B12 | 0.186 KA relative to UGCAUGU |
| B13 | 0.0785 KA relative to UGCAUGU |
| B14 | 0.0685 KA relative to UGCAUGU |
| B15 | 0.0953 KA relative to UGCAUGU |
| B16 | 0.118 KA relative to UGCAUGU |
| B17 | 0.0886 KA relative to UGCAUGU |
| B18 | 0.0989 KA relative to UGCAUGU |
| B19 | 0.0673 KA relative to UGCAUGU |
| B20 | 0.112 KA relative to UGCAUGU |
